Experimental data reported in the supplement of paper PMC3334620.
Over roughly 33,000 sequences, “E-score (-0.5 to 0.5)” has its median near -0.041; the highest 2% begin near 0.37. The list shows a part of the results.

Target: T1, Ecm22 (UniProt Q05958)
T1 sequence: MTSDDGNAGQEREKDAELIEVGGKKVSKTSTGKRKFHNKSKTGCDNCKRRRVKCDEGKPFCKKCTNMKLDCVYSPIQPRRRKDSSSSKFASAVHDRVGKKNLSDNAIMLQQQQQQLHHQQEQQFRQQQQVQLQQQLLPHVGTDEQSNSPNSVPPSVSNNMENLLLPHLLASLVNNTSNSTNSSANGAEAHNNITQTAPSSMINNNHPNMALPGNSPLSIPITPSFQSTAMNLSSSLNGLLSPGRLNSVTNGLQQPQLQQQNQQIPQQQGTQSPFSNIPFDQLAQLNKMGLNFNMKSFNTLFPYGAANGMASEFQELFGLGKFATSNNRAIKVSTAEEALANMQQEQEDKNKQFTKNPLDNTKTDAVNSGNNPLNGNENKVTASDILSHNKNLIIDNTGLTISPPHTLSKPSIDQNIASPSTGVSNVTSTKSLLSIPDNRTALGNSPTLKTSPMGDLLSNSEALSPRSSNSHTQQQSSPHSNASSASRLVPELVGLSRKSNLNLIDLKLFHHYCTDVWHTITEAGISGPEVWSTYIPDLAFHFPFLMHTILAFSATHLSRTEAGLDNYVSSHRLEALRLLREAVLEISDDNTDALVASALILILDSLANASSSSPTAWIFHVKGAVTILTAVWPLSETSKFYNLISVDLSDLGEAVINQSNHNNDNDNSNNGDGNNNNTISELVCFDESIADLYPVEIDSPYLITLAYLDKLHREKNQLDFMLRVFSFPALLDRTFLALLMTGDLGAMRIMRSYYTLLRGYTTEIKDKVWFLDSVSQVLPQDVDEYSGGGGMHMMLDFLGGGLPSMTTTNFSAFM
Assay: PBM E-score (8-mer binding enrichment) (E-score (-0.5 to 0.5)); higher = stronger / more preferred TF binding; most listed sequences are background and not binding sites
Details: protein concentration: 200 nM; construct: GST-full length
Method in brief: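 For each ungapped eight-base word taken together with its reverse complement, the Universal PBM Analysis Suite assigned an E-score. Binding data came from GST-tagged yeast transcription factors, applied at about 100-200 nM, on universal all-10-mer Agilent arrays made double-stranded by primer extension. Fluorescent anti-GST marked bound protein, and scans were normalised with masliner.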

| Sequence | PBM E-score |
| --- | --- |
| ATGCTCTG | -0.321 |
| CCTCTCGA | -0.246 |
| CAATGTTC | -0.0481 |
| GGATTGTA | 0.114 |
| ACGGCGCC | 0.173 |
| AATGACTC | -0.159 |
| CCCCTGCA | -0.294 |
| GACATCAC | 0.151 |
| CAGTGGGC | -0.21 |
| CAATGGCC | -0.222 |
| CGGGTGCA | -0.0911 |
| GTAACTAA | 0.0756 |
| ATACATTC | -0.0026 |
| CTAGGCAA | -0.254 |
| ACAAGAGA | 0.0445 |
| AATGACAG | 0.00025 |
| GACTTGCC | -0.172 |
| CTCTGTCC | -0.0843 |
| CATCACGA | 0.0621 |
| AGCCCGGA | -0.0669 |
| CATATTGA | -0.0221 |
| CATTGGAG | -0.0924 |
| CAAACGCA | 0.103 |
| CGGTGCTA | 0.11 |
| CATCTAAC | -0.123 |

| Sequence | PBM E-score |
| --- | --- |
| CCATGTCC | -0.138 |
| CTGGGTCC | -0.0699 |
| AATGTCGT | 0.329 |
| CGAACGTA | 0.214 |
| GGCCGCAA | -0.0973 |
| ACGGACCC | 0.192 |
| ACGTAAAT | 0.184 |
| AGAGACAC | -0.0701 |
| AGAAAACT | -0.258 |
| GCGAACCC | 0.2 |
| CGTTAGAA | 0.202 |
| ACTTCCTA | -0.201 |
| ACACTAAA | 0.0483 |
| AGCGCGTC | -0.167 |
| GCAGCACC | -0.24 |
| ATCGGGGC | -0.0374 |
| ACCAAGGA | -0.105 |
| ACTCTCCC | -0.121 |
| AATAGACT | -0.181 |
| ATAACCCC | -0.163 |
| CAGTACTA | -0.00071 |
| CCGTGTAC | 0.228 |
| ATCAGTTG | -0.0582 |
| GATCTTGC | -0.103 |
| CGACCAGA | 0.0404 |

| Sequence | PBM E-score |
| --- | --- |
| CTTCCATC | -0.131 |
| GAGCGATC | 0.114 |
| TCGGCAAA | 0.0303 |
| ATCGCACG | -0.187 |
| GACATAGC | -0.227 |
| AAGCGCGA | 0.0135 |
| ACCAGGAG | -0.184 |
| ACAAGACC | -0.205 |
| AAGTAGAA | -0.158 |
| CTCGAAGC | -0.123 |
| CGAAATAG | 0.0481 |
| AGAGGTAC | -0.0703 |
| TCTGCGCA | -0.00535 |
| CTCATAAG | -0.0586 |
| GGAACGAC | 0.491 |
| GACGAAGC | 0.0937 |
| CGTCCGAC | 0.087 |
| CATCCCCC | -0.207 |
| ATATAGTA | 0.0796 |
| CTAATAGA | 0.0918 |
| GCCGCGAA | -0.0751 |
| ACATGAGT | -0.174 |
| GATTTTAC | 0.102 |
| ACTTGAGC | -0.159 |
| AATTCCTC | -0.0283 |

| Sequence | PBM E-score |
| --- | --- |
| CCTATATC | -0.0867 |
| GTCGTGGA | -0.2 |
| GAGTATGA | 0.189 |
| ACTATTGA | -0.0675 |
| TCCGATAA | -0.00671 |
| AGTGGATA | -0.0314 |
| GACGGATA | -0.00582 |
| ATCGCTTA | 0.327 |
| CGGGGGAG | -0.222 |
| TGCACTAA | 0.105 |
| AGCACATC | -0.115 |
| AGATTCGG | -0.033 |
| CGCACTAC | -0.0495 |
| CCAGCTTC | 0.144 |
| CCCCTACG | -0.202 |
| CACGGTAG | -0.159 |
| CAAGGATA | -0.1 |
| ACCACTTG | -0.0461 |
| GTCGTTAA | 0.427 |
| CATTATGA | -0.0704 |
| CACTAGTG | -0.173 |
| AGCCCCTC | 0.0236 |
| CCCAAAAC | 0.101 |
| AGACGGGG | -0.0581 |
| TAATTATA | 0.252 |

| Sequence | PBM E-score |
| --- | --- |
| CTGAATAA | -0.128 |
| GGCGAAGA | -0.193 |
| CTTAGAAG | -0.211 |
| AACGACTT | 0.336 |
| AAACGTTG | 0.0326 |
| CCCGGGTA | -6e-05 |
| GACTCCTA | -0.208 |
| AGCGTATG | 0.136 |
| AGCATCGC | 0.054 |
| CATTCTAC | -0.133 |
| CAGTCATG | -0.314 |
| CAATACTA | -0.174 |
| CGGCTTAA | 0.145 |
| ACCGTGCG | 0.161 |
| AACATACA | -0.0762 |
| AGCAATAG | -0.0955 |
| GTTCCTCA | 0.069 |
| GTAGGCAA | -0.0916 |
| AGAGGCTA | -0.209 |
| ACGTCGTG | 0.117 |
| CCCCACAG | -0.131 |
| GATCTACC | -0.0079 |
| ATTGCTGG | -0.159 |
| TATCCACA | -0.065 |
| CTATGGAC | -0.152 |

| Sequence | PBM E-score |
| --- | --- |
| ACGTCTTG | -0.113 |
| AGTTTCCA | -0.0965 |
| CGGGCTGC | -0.0136 |
| CTGGCTAC | 0.146 |
| GATTTATA | 0.246 |
| AACCCTGC | -0.0164 |
| ATGTGTCA | -0.128 |
| CACATATG | -0.147 |
| ACAATCCT | -0.0917 |
| CGTAGCTA | 0.271 |
| AATAATCC | -0.0225 |
| AACTCTGG | -0.154 |
| ACCCGCCC | -0.0908 |
| GTACCTAA | 0.201 |
| CAGCTCGC | 0.248 |
| AAAGAGCT | -0.209 |
| AGTTGAAT | 0.0147 |
| TCCACCAA | -0.236 |
| AATTTCTC | 0.0237 |
| CTGAAAGC | -0.0788 |
| ATGGACTG | -0.151 |
| GCAAGCGA | 0.187 |
| AACCAAGA | -0.239 |
| AAGGGATA | -0.122 |
| CGACAACC | 0.143 |

| Sequence | PBM E-score |
| --- | --- |
| AGGACCGC | 0.0459 |
| GAAATTTC | -0.0255 |
| GAGTACTA | 0.163 |
| AGCTATAG | -0.308 |
| CGACTACA | 0.0923 |
| AGCAAAGA | -0.229 |
| GGGGGTAC | 0.135 |
| AACGTTGG | 0.00869 |
| AGGAGACT | -0.28 |
| CACGCTCA | -0.155 |
| CGTGCGCC | -0.0925 |
| ATGTGCGA | 0.292 |
| GCGGATAC | 0.151 |
| ATGGCGGA | -0.147 |
| ATTGGTCC | -0.154 |
| CACCAAGA | -0.117 |
| CTAAAGGA | -0.0466 |
| GGGTAGGA | -0.288 |
| CTCCACAA | -0.074 |
| CCGAACGG | 0.222 |
| GCCCAAAA | -0.212 |
| ATTTTTTG | -0.16 |
| AGTGGCAA | -0.103 |
| ATAAGTCG | 0.144 |
| AACCCTCC | -0.228 |

| Sequence | PBM E-score |
| --- | --- |
| ACGAGCGA | 0.409 |
| GACTACAA | -0.102 |
| CGCAGATA | -0.117 |
| ATCTCGAC | 0.0736 |
| GAATGGCA | -0.17 |
| CAGGAGGA | -0.14 |
| GTATCTAA | 0.0769 |
| TAACGAAA | 0.296 |
| AGGCAGTA | -0.0211 |
| GGCAACAC | -0.266 |
| ACAAAAAC | 0.129 |
| GAACATAC | 0.166 |
| TCCGTACA | 0.379 |
| AGTCGTTA | 0.273 |
| ACGGTGTA | 0.299 |
| CGTCCCCC | -0.206 |
| ATAATCGG | 0.154 |
| ATCTGATG | -0.133 |
| ATACCATC | -0.0524 |
| CCTTGTTA | -0.0411 |
| GCGGAAAC | -0.0743 |
| GAGCGATA | 0.24 |
| ACAGTGCG | -0.0346 |
| ACTCCTCG | 0.338 |
| GCGCACAA | 0.144 |

| Sequence | PBM E-score |
| --- | --- |
| AAGAATAT | -0.113 |
| CTAGTTGC | -0.155 |
| ATTCCTAA | 0.0821 |
| CTCTGCAA | -0.107 |
| TGTCATAA | 0.0952 |
| GCGACTCC | -0.049 |
| GATCAAAA | -0.049 |
| CGACGTTC | 0.192 |
| AAACGAAG | 0.457 |
| GTGCGCCA | -0.0489 |
| GTAAAAAA | 0.0457 |
| TGGCTAAA | -0.126 |
| AACTCTTG | -0.214 |
| AGTCTGGG | -0.113 |
| AACACGGC | -0.222 |
| AGACAGAT | -0.115 |
| AGATGGGA | -0.224 |
| AGTCGATA | 0.0979 |
| AGCAATGC | 0.0115 |
